# Experimental data reported in a collection of fitness landscapes (doi:10.1016/j.celrep.2020.107928).
# The full ranking holds about 81,000 sequences; the median of “one-hybrid fitness for binding NBS DNA” is about -0.1, and the highest 2% start at about 0.36. The list shows a part of the results.
# B1: Caulobacter ParB omega fusion; a variant is named by its letters at X, in order, B8GW30 (parent)
# chain: MESVVVGEPGMSEGRRGLGRGLSALLGEVDAAPAQAPGEQLGGSREAPIEILQRNPDQPRRTFREEDLEDLSNSIREKGVLQPILVRPSPDTAGEYQIVAGERAWRAAQRAGLKTVPIMVRELDDLAVLEIGIIENVQRADLNVLEEALSYKVLMEKFERTQENIAQTIGKSXSHVANXMRLLXLPDEVQSYLVSGELTAXHARAIAAAADPVALAKQIIEGGLSVRETEALARKAPNLSAGKSKGGRPPRVKDTDTQALESDLSSVLGLDVSIDHRGSTGTLTITYATLEQLDDLCNRLTRGI
# Variants of: B1
# Assay: one-hybrid fitness for binding NBS DNA (the Noc-binding site; scaled: cognate 1, non-cognate 0); higher = stronger binding
# Settings: with NBS DNA site
# How it was run: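 Fitness here means the log change in variant-to-wild-type read ratio between plasmids sequenced before and after selection. That scale was set so cognate equals 1 and non-cognate equals 0. The selection was a bacterial one-hybrid screen of Caulobacter ParB libraries, four specificity codons randomised, in E. coli USO carrying a HIS3 reporter with the site 19 bp from the promoter, grown 48 hours at 37°C on M9-minus-histidine with 0.1 mM IPTG and 5 mM 3-AT.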
row,Variant,one-hybrid fitness for binding NBS DNA
1,SMND,≤ 0.2
2,MNLV,≤ 0.2
3,TADW,≤ 0.2
4,FHPG,≤ 0.2
5,MEKR,≤ 0.2
6,IEAG,≤ 0.2
7,LWSR,≤ 0.2
8,RGFS,≤ 0.2
9,KTRQ,≤ 0.2
10,HYGC,≤ 0.2
11,HGRS,≤ 0.2
12,FMAT,≤ 0.2
13,ANKD,≤ 0.2
14,VGPD,≤ 0.2
15,FWPA,≤ 0.2
16,YSIC,≤ 0.2
17,DSYT,≤ 0.2
18,AQST,≤ 0.2
19,IRRY,≤ 0.2
20,VQFT,≤ 0.2
21,YMMY,≤ 0.2
22,SRKA,≤ 0.2
23,FNQG,≤ 0.2
24,TENG,≤ 0.2

row,Variant,one-hybrid fitness for binding NBS DNA
1,CYML,≤ 0.2
2,KPPF,≤ 0.2
3,NNDY,≤ 0.2
4,LKMM,≤ 0.2
5,WDTR,≤ 0.2
6,GTPF,≤ 0.2
7,LNQC,≤ 0.2
8,LNTI,≤ 0.2
9,MQQC,≤ 0.2
10,EVQV,≤ 0.2
11,NYAT,≤ 0.2
12,RTKN,0.3
13,QYQP,≤ 0.2
14,HKPL,≤ 0.2
15,YREC,≤ 0.2
16,RKSP,≤ 0.2
17,STVV,≤ 0.2
18,QQME,≤ 0.2
19,PWCS,≤ 0.2
20,RSSV,≤ 0.2
21,DTKC,≤ 0.2
22,FVDC,≤ 0.2
23,QAPH,≤ 0.2
24,YYSG,≤ 0.2

row,Variant,one-hybrid fitness for binding NBS DNA
1,AWRG,≤ 0.2
2,HVDS,≤ 0.2
3,KANC,≤ 0.2
4,KMST,≤ 0.2
5,VDDG,≤ 0.2
6,TGTN,≤ 0.2
7,DWTH,≤ 0.2
8,PWDC,≤ 0.2
9,TPHP,≤ 0.2
10,RVDR,0.213
11,FPSC,≤ 0.2
12,CSYT,≤ 0.2
13,IMKE,≤ 0.2
14,QCPM,≤ 0.2
15,PDPW,≤ 0.2
16,GVPF,≤ 0.2
17,INKK,≤ 0.2
18,LQFA,≤ 0.2
19,QVWT,0.21
20,PQVF,≤ 0.2
21,GYPG,≤ 0.2
22,WITS,≤ 0.2
23,ACTV,≤ 0.2
24,WPWS,≤ 0.2

row,Variant,one-hybrid fitness for binding NBS DNA
1,LTMI,≤ 0.2
2,QLLL,≤ 0.2
3,MTLN,≤ 0.2
4,PCAT,≤ 0.2
5,RPND,≤ 0.2
6,AISY,≤ 0.2
7,AWSN,≤ 0.2
8,RLPI,≤ 0.2
9,CQTC,≤ 0.2
10,GTPG,≤ 0.2
11,YGYI,≤ 0.2
12,LQYS,≤ 0.2
13,YPKY,≤ 0.2
14,DTTE,≤ 0.2
15,PQIW,≤ 0.2
16,WTNR,≤ 0.2
17,EEYG,≤ 0.2
18,ESKN,≤ 0.2
19,AVHT,≤ 0.2
20,KGDK,≤ 0.2
21,MSWT,≤ 0.2
22,VTRN,≤ 0.2
23,RGEI,≤ 0.2
24,CPQL,≤ 0.2

row,Variant,one-hybrid fitness for binding NBS DNA
1,QLSQ,≤ 0.2
2,CSNF,≤ 0.2
3,TDVL,≤ 0.2
4,PTSC,≤ 0.2
5,QTAE,≤ 0.2
6,RNVF,≤ 0.2
7,ERIG,≤ 0.2
8,NAVY,≤ 0.2
9,RYRP,≤ 0.2
10,RPML,≤ 0.2
11,IAMS,≤ 0.2
12,TTPC,≤ 0.2
13,KEST,≤ 0.2
14,CVLR,≤ 0.2
15,KRWQ,≤ 0.2
16,HPGF,≤ 0.2
17,NNRT,≤ 0.2
18,HKDQ,≤ 0.2
19,HLCS,≤ 0.2
20,KKKC,≤ 0.2
21,RIIT,≤ 0.2
22,QWVL,≤ 0.2
23,KPYS,≤ 0.2
24,RRCQ,0.258

row,Variant,one-hybrid fitness for binding NBS DNA
1,RQCH,≤ 0.2
2,KTLE,≤ 0.2
3,GTLR,≤ 0.2
4,LHNL,≤ 0.2
5,IDRY,≤ 0.2
6,RHPE,≤ 0.2
7,GSTE,≤ 0.2
8,REQM,≤ 0.2
9,SHFG,≤ 0.2
10,KSKN,≤ 0.2
11,VADN,≤ 0.2
12,LPVV,≤ 0.2
13,RCWR,0.405
14,HAFG,≤ 0.2
15,LGPE,≤ 0.2
16,TWRI,≤ 0.2
17,RCCR,0.45
18,ESYL,≤ 0.2
19,PNSM,≤ 0.2
20,VVWR,≤ 0.2
21,SYSA,≤ 0.2
22,HYAG,≤ 0.2
23,EYYS,≤ 0.2
24,FAQC,≤ 0.2

row,Variant,one-hybrid fitness for binding NBS DNA
1,TQEA,≤ 0.2
2,AMVA,≤ 0.2
3,RAWL,≤ 0.2
4,RWPQ,≤ 0.2
5,QLAN,≤ 0.2
6,LRTS,≤ 0.2
7,AMMW,≤ 0.2
8,KGWG,≤ 0.2
9,MHDT,≤ 0.2
10,FHRA,≤ 0.2
11,SGPR,≤ 0.2
12,SFLQ,≤ 0.2
13,GSSM,≤ 0.2
14,RGHS,≤ 0.2
15,FGPD,≤ 0.2
16,AIIN,≤ 0.2
17,VISL,≤ 0.2
18,SHHM,≤ 0.2
19,RTGF,≤ 0.2
20,YYNA,≤ 0.2
21,GPYW,≤ 0.2
22,DDNC,≤ 0.2
23,HFHG,≤ 0.2
24,QLYM,≤ 0.2

row,Variant,one-hybrid fitness for binding NBS DNA
1,MDMM,≤ 0.2
2,ECRR,0.234
3,HNPG,≤ 0.2
4,ACLC,≤ 0.2
5,KRYI,≤ 0.2
6,WGSR,≤ 0.2
7,QDAI,≤ 0.2
8,RHEP,≤ 0.2
9,KAML,≤ 0.2
10,VQIG,≤ 0.2
11,DVEG,≤ 0.2
12,NVRV,≤ 0.2
13,MVDL,≤ 0.2
14,EQCS,≤ 0.2
15,PTYP,≤ 0.2
16,CSCS,≤ 0.2
17,RHQR,0.448
18,KCNF,≤ 0.2
19,VLRL,≤ 0.2
20,VDIF,≤ 0.2
21,PMSV,≤ 0.2
22,HPYV,≤ 0.2
23,VGVC,≤ 0.2
24,LCFC,≤ 0.2

row,Variant,one-hybrid fitness for binding NBS DNA
1,ERAY,≤ 0.2
2,SARG,≤ 0.2
3,NLQL,≤ 0.2
4,REVR,≤ 0.2
5,RFAS,≤ 0.2
6,FHPL,≤ 0.2
7,FLPE,≤ 0.2
8,PMTL,≤ 0.2
9,TTRV,≤ 0.2
10,LECA,≤ 0.2
11,RRMW,≤ 0.2
12,KGWY,≤ 0.2
13,EPYK,≤ 0.2
14,DITR,≤ 0.2
15,MSDC,≤ 0.2
16,NVHL,≤ 0.2
17,YTGV,≤ 0.2
18,YKMS,≤ 0.2
19,SPEK,≤ 0.2
20,QFSM,≤ 0.2
21,ARHP,≤ 0.2
22,NFQF,≤ 0.2
23,GQYG,≤ 0.2
24,VRAK,≤ 0.2

row,Variant,one-hybrid fitness for binding NBS DNA
1,CRSE,≤ 0.2
2,PVER,≤ 0.2
3,TFTT,≤ 0.2
4,YFNR,≤ 0.2
5,KRRS,0.549
6,AQQY,≤ 0.2
7,QTMT,0.551
8,QISI,≤ 0.2
9,RPRF,≤ 0.2
10,YHCF,≤ 0.2
11,TGAY,≤ 0.2
12,VNVT,≤ 0.2
13,NVAD,≤ 0.2
14,RMKK,0.253
15,PYNL,≤ 0.2
16,RMTY,≤ 0.2
17,AMAF,≤ 0.2
18,RCGW,≤ 0.2
19,QLLV,≤ 0.2
20,HGIT,≤ 0.2
21,TTDH,≤ 0.2
22,ASTM,≤ 0.2
23,QKEC,≤ 0.2
24,DPAN,≤ 0.2

row,Variant,one-hybrid fitness for binding NBS DNA
1,VQNR,≤ 0.2
2,TGQC,≤ 0.2
3,CPAI,≤ 0.2
4,FTWF,≤ 0.2
5,YRPS,≤ 0.2
6,LMPG,≤ 0.2
7,SRHK,≤ 0.2
8,QGLL,≤ 0.2
9,FAGC,≤ 0.2
10,NAKN,≤ 0.2
11,EQLI,≤ 0.2
12,GRQC,≤ 0.2
13,SEVC,≤ 0.2
14,FRLF,≤ 0.2
15,HKQS,≤ 0.2
16,NIRW,≤ 0.2
17,MSEG,≤ 0.2
18,SVTV,≤ 0.2
19,FVLT,≤ 0.2
20,PIHS,≤ 0.2
21,DPPM,≤ 0.2
22,YLHG,≤ 0.2
23,TKQT,≤ 0.2
24,IHKE,≤ 0.2

row,Variant,one-hybrid fitness for binding NBS DNA
1,SVIG,≤ 0.2
2,RQPM,≤ 0.2
3,VLHC,≤ 0.2
4,QRWR,0.796
5,GDQG,≤ 0.2
6,SSTP,≤ 0.2
7,KQPM,≤ 0.2
8,PSLT,≤ 0.2
9,NPVN,≤ 0.2
10,PGTL,≤ 0.2
11,MMNG,≤ 0.2
12,YDLT,≤ 0.2
13,HCDC,≤ 0.2
14,TRTR,0.359
15,QSTN,≤ 0.2
16,QPQV,≤ 0.2
17,SRGM,≤ 0.2
18,RIEA,≤ 0.2
19,LTAG,≤ 0.2
20,ERCR,≤ 0.2
21,EPAR,≤ 0.2
22,HGNA,≤ 0.2
23,RYKS,0.57
24,QVNN,≤ 0.2

row,Variant,one-hybrid fitness for binding NBS DNA
1,LFNG,≤ 0.2
2,RWHL,≤ 0.2
3,SPAS,≤ 0.2
4,IVDV,≤ 0.2
5,QLSC,≤ 0.2
6,HDRA,≤ 0.2
7,IDRS,≤ 0.2
8,LVTS,≤ 0.2
9,AGRT,≤ 0.2
10,PGTW,≤ 0.2
11,EMRG,≤ 0.2
12,DVYS,≤ 0.2
13,HVQY,≤ 0.2
14,PRWD,≤ 0.2
15,ESFT,≤ 0.2
16,IRIR,≤ 0.2
17,FLVL,≤ 0.2
18,CSMG,≤ 0.2
